This is one part of the list.

To fix the notation:
T1: UNK ZnF1-6 (called full-length) (human, UniProt Q9C0B0 30-357)
T1 sequence: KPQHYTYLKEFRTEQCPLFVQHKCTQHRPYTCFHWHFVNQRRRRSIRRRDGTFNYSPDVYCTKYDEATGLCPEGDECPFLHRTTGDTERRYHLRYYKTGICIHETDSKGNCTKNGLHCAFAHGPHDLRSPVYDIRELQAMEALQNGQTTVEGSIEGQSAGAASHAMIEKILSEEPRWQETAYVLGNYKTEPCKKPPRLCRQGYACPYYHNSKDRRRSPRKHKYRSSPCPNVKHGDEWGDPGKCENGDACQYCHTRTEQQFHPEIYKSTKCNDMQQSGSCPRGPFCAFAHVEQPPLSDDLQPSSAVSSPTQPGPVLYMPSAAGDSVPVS

B1: chr1:40073325:40073426:-|3pUTR|ENSG00000131238|msi1|FALSE|unique (ssRNA)
RNA: GGGAGUUCUACAGUCCGACGAUCGAGGGAAGUAGCACCCAAAUUAAGUUGCUUAAGAGAGGAAAUGUACAUCUUGUAUAACUUAGGGAGCGAAGAAAAUGUAGGCGCGAAAGUGAAAAGUGAGGCAGCUAGUUCUUCCUAUUCCAACAGAGGAUUGAGCAUCA
B2: chr21:36416827:36416928:+|3pUTR|ENSG00000159259|unk|total|mutant (ssRNA)
RNA: GGGAGUUCUACAGUCCGACGAUCAACUUUGGAAGGCCGUUGUGUUUGUUUUCUGAUUUUAAAGGUGACGAUGCUUAUUCUUUCCGUAACUAAGUGAAGUGAAAAAGAUGGGUAUCACCCAUCAUCUUCCCACCAGAAGUAACCCAACAGAGGAUUGAGCAUCA
B3: chr2:216672374:216672548:-|3pUTR|ENSG00000115461|msi1|total|mutant (ssRNA)
RNA: GGGAGUUCUACAGUCCGACGAUCUUUUUCUUUUUUUUUUUGAAGACAGCAAUAACCACAGUACAUAUUACUGCCGUUCUCUACCGUUUUACAUACAUUCAUACCAUAACUCUGUUCUCUCCUCUUUUUUGUUUUCAACUUUAACAACAGAGGAUUGAGCAUCA
B4: ENSG00000107863:be:win_6301|3pUTR|ENSG00000107863|bound_else_gene|NA|bound_elsewhere_windowed (ssRNA)
RNA: GGGAGUUCUACAGUCCGACGAUCAUUGGUAACAGAUAUCAUUACAUUUACCAGUUUUAACACAGGUGGAUACAGAACUUCCAUUCUUUAGUCAUUCCAGGUGGAUCUGAGUUUUAUAUUCAAACUUUUAAUACAGUUUUUGAGCAACAGAGGAUUGAGCAUCA
B5: chr12:907890:907991:+|CDS|ENSG00000060237|msi1|total|mutant (ssRNA)
RNA: GGGAGUUCUACAGUCCGACGAUCGCCUCCUGCCAUGACGUCCAGCAGGAAGGGCACAUUCACAGAUGACUUGCACAAGUUGGCCGACAAUUGGGCCCGAGAUGCCAUGAAUCUCUCAGGCAGGAGAGGAAGCAAAGGGCACAUCAACAGAGGAUUGAGCAUCA
B6: chr12:76029359:76029534:-|3pUTR|ENSG00000139289|msi1|FALSE|unique (ssRNA)
RNA: GGGAGUUCUACAGUCCGACGAUCAGAAGUUUAAAAAGCUAAAAGUUAAAAAUGGUGUAAUUAUGAAAAUCUAACACUCAAGAUAGUUUCUAAAAGGAAAUCAGUAGUUAAGGAUACCUGAUUUCAAAAUAUUUAAAGCAUAACCAACAGAGGAUUGAGCAUCA
B7: chr11:18933498:18933815:-|three_prime_utr|ENSG00000170255|control|control|control (ssRNA)
RNA: GGGAGUUCUACAGUCCGACGAUCAGACAGGACUUUGAGAGCAACACUGCCCUGCCACCCUUGACAAUUAUAUGCGUUUUUCUUAGCCUUCUGCCUCAGAAAUGUCUCAGUGGUUCCUCAAGGUCUUCAAAUAGAUGUUUAUCUCAACAGAGGAUUGAGCAUCA
B8: chr12:39553730:39553837:-|3pUTR|ENSG00000173208|unk|FALSE|unique (ssRNA)
RNA: GGGAGUUCUACAGUCCGACGAUCGAAGUAUGUUAAGCUAAGCACAGAGAAAAAAAGGCAGCAAGACAUGUUUUAUAAGAUUUUAGCAUUAAGGAAGUAUAUGAUCUGACUUUUCAGAAGAAAAUAAACAAAUGCAUUAUGUAACAACAGAGGAUUGAGCAUCA
B9: chr1:112701350:112701454:-|3pUTR|ENSG00000155366|unk|total|mutant (ssRNA)
RNA: GGGAGUUCUACAGUCCGACGAUCGGCUCCAUGCUGAAGGCUCCCAUUUUCAGUUCCCUCCUGCCCAGGACUGCAUUGUUUUCCCGCCCCGAGGUGGUGGCACGGGCCCUCCCUCCCAGCGCUCUGGGAGCCACGCCUAUGCCCCAACAGAGGAUUGAGCAUCA
B10: chr1:248850005:248850516:-|three_prime_utr|ENSG00000171163|control|control|control (ssRNA)
RNA: GGGAGUUCUACAGUCCGACGAUCUUCCCCUGUGAAUUCUGCGGCAAGCGCUUUGAGAAGCCAGACAGUGUUGCAGCCCACCGUAGCAAAAGUCACCCAGCCCUGCUUCUAGCCCCUCAAGAGUCACCCAGUGGUCCCCUAGAGCAACAGAGGAUUGAGCAUCA
B11: ENSG00000136451:be:win_951|CDS|ENSG00000136451|bound_else_gene|NA|bound_elsewhere_windowed (ssRNA)
RNA: GGGAGUUCUACAGUCCGACGAUCUACAUGUAAACAAGGCAUCAGUAAAACAUGCAUGAGUGAAGAGACCAGUAACCAAAAGCAGCAGCAGCAGCAGCAGCAGCAGCAGCAGCAGCAGCAACAACAACAACAACAACAUGUGACCAACAGAGGAUUGAGCAUCA
B12: chr11:118373572:118373686:+|CDS|ENSG00000110344|unk|FALSE|bound_elsewhere (ssRNA)
RNA: GGGAGUUCUACAGUCCGACGAUCGAAGACCUUGCUGGGAGUAAUUCUGAGUAUCUCCUGCUUAUUAAAGACUCCGGGUGUUGUAGAAAAUCAUGGCUACUUUUUGAAUCCAUCUCGUUCCAGCCCCCAGGAGAUCAAAGUACACAACAGAGGAUUGAGCAUCA
B13: chr5:151662667:151662729:-|3pUTR|ENSG00000113140|msi1_unk|total|mutant (ssRNA)
RNA: GGGAGUUCUACAGUCCGACGAUCGCCAGGCUGUUUCAGCCAGGAAGGCCAAAAUCAAGAGUGAGAUGCCGAAAGUUGUAAAACCGAAAAAGUGGAGUUGGUGAAUCGGUUGUUCUUUCCUCACAUUUGGAUGAUUGUCAUAAGCAACAGAGGAUUGAGCAUCA
B14: chr19:41330322:41331077:-|three_prime_utr|ENSG00000105329|control|control|control (ssRNA)
RNA: GGGAGUUCUACAGUCCGACGAUCGUCUGCACUAUUCCUUUGCCCGGCAUCAAGGCACAGGGGACCAGUGGGGAACACUACUGUAGUUAGAUCUAUUUAUUGAGCACCUUGGGCACUGUUGAAGUGCCUUACAUUAAUGAACUCCAACAGAGGAUUGAGCAUCA
B15: ENSG00000070961:be:win_5151|3pUTR|ENSG00000070961|bound_else_gene|NA|bound_elsewhere_windowed (ssRNA)
RNA: GGGAGUUCUACAGUCCGACGAUCUAACAGAUUAGGUAAAAUGAGAUUACAUGAAAAGGUUCUAAAAUGAUAUAUUUAGAUGCAAUAAUUAACCAUAUGCUAGAAUGCCCACCUCUAAGCCAAUUGGAUUCUUUAGCUCUCUUUCAACAGAGGAUUGAGCAUCA
B16: chr17:32711987:32712195:-|CDS|ENSG00000176658|control|control|control (ssRNA)
RNA: GGGAGUUCUACAGUCCGACGAUCUCCUUCAGACAAAGAGGCUGUCAAGAAACUAAUUGAACGGUGUGGUUUUCAGGAUGAUGUAGCUUAUGGGAAGACCAAAAUUUUCAUUCGAACACCCCGAACAUUGUUUACCUUGGAAGACAACAGAGGAUUGAGCAUCA
B17: ENSG00000107863:be:win_1751|CDS|ENSG00000107863|bound_else_gene|NA|bound_elsewhere_windowed (ssRNA)
RNA: GGGAGUUCUACAGUCCGACGAUCAAAAAAUUCCACCAGAUCUAAAAACAUUGCAGUCAAACAGAAAUUUUCAGACUACUUGUGGAAUGUCACUGCCUCGGGGUAUUUCACAAGACAGGUCACCUCUUGUGAAAGUCCGAAGUACAACAGAGGAUUGAGCAUCA
B18: chr16:3436009:3436110:-|3pUTR|ENSG00000167981|unk|FALSE|unique (ssRNA)
RNA: GGGAGUUCUACAGUCCGACGAUCAUUAAAAUGAAGGCUCUUGCUAAAGUUAUUUUAAUUUUGUUUACGUAGUUUCUGACUUUUAGAAGGAGGAGAAUUUAUUUAUAUUUUGCCAGUUCUGCAGACAUAUCUAGGAAAGUAAAUCAACAGAGGAUUGAGCAUCA
B19: chrX:154436128:154436291:+|3pUTR|ENSG00000071553|msi1_unk|FALSE|overlapping (ssRNA)
RNA: GGGAGUUCUACAGUCCGACGAUCAUUCUAGGGUCUCCUUUCUCCUUAUUUAUUCUUGUGGCUACAUCAUCCCUGGCUGUGGAUAGUGCUUUUGUGUAGCAAAUGCUCCCUCCUUAAGGUUAUAGGGCUCCCUGAGUUUGGGAGCAACAGAGGAUUGAGCAUCA
B20: chr5:137939581:137939637:-|3pUTR|ENSG00000031003|msi1_unk|FALSE|overlapping (ssRNA)
RNA: GGGAGUUCUACAGUCCGACGAUCUGUUAGUAAAAUUUUGCAAUUCGCUGGUCACACAGCUCCCGGAUGAAGAUAACAGUUGGUAGACCAAAAGGUGACCUCGCUUAGUAUAUUGAAAACACACACCACACAUCACACACAGAACAACAGAGGAUUGAGCAUCA
B21: chr2:54972555:54972835:-|3pUTR|ENSG00000115310|msi1_unk|total|mutant (ssRNA)
RNA: GGGAGUUCUACAGUCCGACGAUCUGUGCACUGUGUAUGGUCCGUGCCGAUUGAUGCAGAUUUUCUGAAAUGAAAUGUUUGUUCCGACGAGAUCAUACCGGUAAAGCAGGAAUGACAAAGCUUGCUUUUCUGGUAUGUUCCCGGCAACAGAGGAUUGAGCAUCA
B22: chr3:160432293:160432405:+|CDS|ENSG00000113810|unk|FALSE|bound_elsewhere (ssRNA)
RNA: GGGAGUUCUACAGUCCGACGAUCGAAUUGUAUUUGCAACGGGUAGCAGAAUUGGACAAAAUUACUUAUGAAAGAGACAGUUUUAGACAGGCAUAUGAAGAUCUUCGGAAACAAAGGCUUAAUGAAUUUAUGGCAGGUUUUUAUCAACAGAGGAUUGAGCAUCA

This experiment deals with T1, UNK ZnF1-6 (called full-length). Briefly: nsRBNS (natural sequence RNA bind-n-seq); RBNS binding buffer (assumed for nsRBNS): 25 mM Tris pH 7.5, 150 mM KCl, 3 mM MgCl2, 0.01% Triton X-100, 500 ug/ml BSA, 20 U/ml SUPERase-In, 4 C; UNK is unkempt and MSI1 is Musashi-1; names of the RNAs are library labels; protein concentration not given here; high values mean tight binding.
B1 showed a binding signal of 0.9 enrichment R. As for B2, the figure is 0.212 enrichment R. As for B3, the figure is 1.89 enrichment R; as for B4, 2.39 enrichment R; as for B5, 0.784 enrichment R. For B6, the binding signal worked out at 1.92 enrichment R. As for B7, the figure is 1.46 enrichment R; as for B8, 0.997 enrichment R. In the case of B9 it was 0.958 enrichment R; in that of B10, 0.925 enrichment R. In the case of B11 it was 0.641 enrichment R. With B12, the binding signal worked out at 0.611 enrichment R. As for B13, the figure is 0.883 enrichment R; as for B14, 2.74 enrichment R.

The molecule B15 displayed a binding signal of 2.18 enrichment R. B16 gave a binding signal of 0.434 enrichment R. In the case of B17 it was 0.397 enrichment R; in that of B18, 4.35 enrichment R. As for B19, the figure is 1.65 enrichment R. In the case of B20 it was 6.92 enrichment R; in that of B21, 0.329 enrichment R; in that of B22, 0.887 enrichment R.

For the origin of these results see publication PMC12136788.
